Measurements taken from PMC5501724, “Structural Basis for Specific Interaction of TGFβ Signaling Regulators SARA/Endofin with HD-PTP” (Structure(London, England:1993), 2017).
These are yes or no findings as the source states them, for the method shown. Binding seen in cells or lysates may run through a third protein. Some binding calls cover weakened binding; strength is not graded here. Where a sequence is shown, tags or fusion partners need not be part of it.

Tests used:
[1] = target: T1, His6-HD-PTP_(Bro1-CC) (1-714), bacterially expressed (human) (UniProt Q9H3S7); assay: co-IP; 20 μl in vitro translated 35S-endofin(1-84)-strep incubated with 5 μg bacterially expressed His6-HD-PTP Bro1-CC in IP2 buffer (20 mM Hepes pH 7.4, 100 mM NaCl, 1 mM MgCl2, 1% Triton X-100), 4°C; anti-His antibody and protein A-sepharose; phosphorimaging; only the target purified
T1 sequence: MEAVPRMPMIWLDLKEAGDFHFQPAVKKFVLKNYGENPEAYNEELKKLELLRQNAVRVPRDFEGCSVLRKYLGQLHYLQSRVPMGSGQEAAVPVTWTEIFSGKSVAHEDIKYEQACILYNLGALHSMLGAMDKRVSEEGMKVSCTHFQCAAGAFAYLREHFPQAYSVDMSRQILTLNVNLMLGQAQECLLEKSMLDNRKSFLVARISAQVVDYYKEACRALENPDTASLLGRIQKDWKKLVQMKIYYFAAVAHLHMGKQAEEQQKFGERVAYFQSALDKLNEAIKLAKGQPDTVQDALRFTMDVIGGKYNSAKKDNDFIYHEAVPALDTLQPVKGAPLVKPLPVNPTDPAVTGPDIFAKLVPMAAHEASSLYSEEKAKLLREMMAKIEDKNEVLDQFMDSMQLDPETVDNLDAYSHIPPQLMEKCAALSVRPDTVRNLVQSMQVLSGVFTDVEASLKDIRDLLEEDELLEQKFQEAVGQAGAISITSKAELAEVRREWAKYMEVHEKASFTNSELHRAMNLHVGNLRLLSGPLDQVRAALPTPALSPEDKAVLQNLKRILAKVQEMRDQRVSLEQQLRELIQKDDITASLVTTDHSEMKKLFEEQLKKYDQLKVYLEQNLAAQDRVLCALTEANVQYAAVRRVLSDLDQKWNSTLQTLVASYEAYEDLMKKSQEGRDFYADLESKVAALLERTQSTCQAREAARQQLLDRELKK

[2] = target: T2, His6HD-PTP_(Bro1-CC) R198M, in vitro co-translated (human) (UniProt Q9H3S7); assay: co-IP; endofin(1–84) and His6HD-PTP Bro1-CC (wild type and mutants) co-translated in vitro, then immunoprecipitated with anti-His (Figure S3)
T2 sequence: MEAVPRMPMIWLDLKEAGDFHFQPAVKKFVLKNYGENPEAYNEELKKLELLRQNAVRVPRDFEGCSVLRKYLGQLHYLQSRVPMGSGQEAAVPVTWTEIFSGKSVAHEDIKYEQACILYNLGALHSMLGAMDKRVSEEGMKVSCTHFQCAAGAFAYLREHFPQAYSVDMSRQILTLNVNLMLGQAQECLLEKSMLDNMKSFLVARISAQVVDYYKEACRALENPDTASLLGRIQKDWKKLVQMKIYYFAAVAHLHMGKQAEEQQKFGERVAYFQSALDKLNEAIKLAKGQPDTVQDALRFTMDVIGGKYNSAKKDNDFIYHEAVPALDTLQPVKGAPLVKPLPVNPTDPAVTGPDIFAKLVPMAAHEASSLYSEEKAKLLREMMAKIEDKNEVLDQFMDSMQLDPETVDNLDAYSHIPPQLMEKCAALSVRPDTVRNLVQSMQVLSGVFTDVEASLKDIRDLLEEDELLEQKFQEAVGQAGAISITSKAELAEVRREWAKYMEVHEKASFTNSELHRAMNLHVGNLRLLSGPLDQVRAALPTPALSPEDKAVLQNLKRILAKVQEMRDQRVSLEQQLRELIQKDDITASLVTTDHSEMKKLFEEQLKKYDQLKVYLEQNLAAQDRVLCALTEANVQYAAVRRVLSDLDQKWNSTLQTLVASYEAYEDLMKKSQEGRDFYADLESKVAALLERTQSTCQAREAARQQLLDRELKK

[3] = target: T3, His6HD-PTP_(Bro1-CC) T145K, in vitro co-translated (human) (UniProt Q9H3S7); assay: as above
T3 sequence: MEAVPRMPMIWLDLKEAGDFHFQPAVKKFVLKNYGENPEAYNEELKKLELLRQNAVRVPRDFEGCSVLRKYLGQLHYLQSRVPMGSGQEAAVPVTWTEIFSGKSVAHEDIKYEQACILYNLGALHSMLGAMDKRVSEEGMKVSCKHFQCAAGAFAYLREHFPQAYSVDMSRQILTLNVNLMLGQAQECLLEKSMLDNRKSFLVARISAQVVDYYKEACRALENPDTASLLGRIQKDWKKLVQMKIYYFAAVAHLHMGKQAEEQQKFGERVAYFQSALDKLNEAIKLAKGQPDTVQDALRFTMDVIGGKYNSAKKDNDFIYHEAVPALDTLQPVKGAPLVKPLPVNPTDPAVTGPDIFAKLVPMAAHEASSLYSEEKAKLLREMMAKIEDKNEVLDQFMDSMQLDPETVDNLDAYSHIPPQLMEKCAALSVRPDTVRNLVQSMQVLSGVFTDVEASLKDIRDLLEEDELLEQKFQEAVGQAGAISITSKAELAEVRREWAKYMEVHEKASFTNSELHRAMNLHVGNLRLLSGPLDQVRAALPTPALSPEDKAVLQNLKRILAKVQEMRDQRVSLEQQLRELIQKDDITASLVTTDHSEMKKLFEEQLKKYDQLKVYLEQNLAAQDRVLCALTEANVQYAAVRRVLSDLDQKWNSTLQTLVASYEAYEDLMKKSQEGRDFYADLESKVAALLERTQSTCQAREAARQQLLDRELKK

[4] = target: T4, His6HD-PTP_(Bro1-CC) wild-type, in vitro co-translated (human) (UniProt Q9H3S7); assay: as above
T4 sequence: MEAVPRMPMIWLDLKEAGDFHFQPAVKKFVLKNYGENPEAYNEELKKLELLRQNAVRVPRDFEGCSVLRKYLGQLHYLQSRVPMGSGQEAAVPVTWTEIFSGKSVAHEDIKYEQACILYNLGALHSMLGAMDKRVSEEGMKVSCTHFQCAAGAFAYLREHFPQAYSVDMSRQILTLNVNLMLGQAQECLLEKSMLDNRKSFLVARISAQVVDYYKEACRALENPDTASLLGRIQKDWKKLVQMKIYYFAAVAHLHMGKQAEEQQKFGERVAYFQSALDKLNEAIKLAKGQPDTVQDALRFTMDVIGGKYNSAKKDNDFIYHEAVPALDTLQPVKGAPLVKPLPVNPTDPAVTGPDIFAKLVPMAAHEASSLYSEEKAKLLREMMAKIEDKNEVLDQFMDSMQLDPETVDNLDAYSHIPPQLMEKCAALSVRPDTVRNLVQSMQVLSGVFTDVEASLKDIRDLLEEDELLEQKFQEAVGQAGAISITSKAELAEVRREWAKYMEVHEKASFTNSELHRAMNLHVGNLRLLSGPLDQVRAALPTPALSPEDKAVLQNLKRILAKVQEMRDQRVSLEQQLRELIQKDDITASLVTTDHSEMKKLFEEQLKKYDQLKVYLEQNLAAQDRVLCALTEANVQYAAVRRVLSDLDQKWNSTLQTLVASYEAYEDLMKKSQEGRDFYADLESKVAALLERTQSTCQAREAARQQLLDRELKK

binding [1]: binds
binding [2]: binds
binding [3]: no binding
binding [4]: binds
B1: endofin_(1–84)-strep, in vitro translated (domain or fragment, UniProt Q7Z3T8 1-84)
chain: MDSYFKAAVSDLDKLLDDFEQNPDEQDYLQDVQNAYDSNHCSVSSELASSQRTSLLPKDQECVNSCASSETSYGTNESSLNEKT
modifications: 35S-methionine
